Data from PubChem BioAssay AID1460 (National Center for Advancing Translational Sciences (NCATS), 2008).
Screen size: about 270,000 compounds; about 5,800 (2.1%) were called active. Inconclusive results (about 16%) are left out. Calls come from the whole dose curve; as a rule, active = well fitted inhibition curve with a large enough effect; inconclusive = small, poorly fitted or top-dose-only effect; inactive = flat fitted curve, though single readings scatter. Only a part is listed here, and it is no random draw. The source holds several records for some structures; these can differ, active in one and inactive in another.

Molecular target: Microtubule-associated protein tau (Homo sapiens) (UniProt P10636)
Assay: qHTS for Inhibitors of Tau Fibril Formation, Thioflavin T Binding; note: nearly all actives have a fitted effect of over 55% in size
Conditions: recombinant tau K18 P301L (four-repeat tau fragment), heparin-induced fibrillization, ThT fluorescence; series mostly up to 57.4 µM; activity, negative = inhibition: at the top concentration
Summary of the method: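 Aggregation was driven by heparin (20 uM final) acting on recombinant tau […] bearing P301L in 100 mM sodium acetate pH 7; fibrils were detected with Thioflavin T.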
% is set by controls: 0 for no effect and ±100 for the full control effect; potency is the fitted concentration of half-maximal effect.

Chain of UniProt P10636 (P10636 whole entry, looked up): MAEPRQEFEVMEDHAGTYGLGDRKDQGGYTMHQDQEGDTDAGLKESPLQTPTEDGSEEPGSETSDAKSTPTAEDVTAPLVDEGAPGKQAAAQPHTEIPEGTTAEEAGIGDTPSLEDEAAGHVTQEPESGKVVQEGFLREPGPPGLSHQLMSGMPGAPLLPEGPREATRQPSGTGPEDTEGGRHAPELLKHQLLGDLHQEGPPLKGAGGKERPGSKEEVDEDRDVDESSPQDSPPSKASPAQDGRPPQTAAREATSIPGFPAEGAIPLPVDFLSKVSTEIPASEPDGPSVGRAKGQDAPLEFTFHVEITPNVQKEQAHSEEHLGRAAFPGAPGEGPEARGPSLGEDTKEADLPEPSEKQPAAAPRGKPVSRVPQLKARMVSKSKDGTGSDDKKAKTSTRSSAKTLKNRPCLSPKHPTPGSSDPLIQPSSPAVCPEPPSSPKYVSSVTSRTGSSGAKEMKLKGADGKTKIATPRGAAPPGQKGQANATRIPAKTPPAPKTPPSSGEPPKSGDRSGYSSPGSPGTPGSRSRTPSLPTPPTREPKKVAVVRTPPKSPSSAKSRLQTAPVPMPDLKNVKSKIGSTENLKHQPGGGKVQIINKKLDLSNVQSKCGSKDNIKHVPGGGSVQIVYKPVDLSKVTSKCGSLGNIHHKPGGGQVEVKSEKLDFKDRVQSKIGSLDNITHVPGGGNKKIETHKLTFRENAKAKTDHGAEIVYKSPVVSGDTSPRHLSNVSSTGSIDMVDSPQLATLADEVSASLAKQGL

Row | Compound | Potency | activity, negative = inhibition
1 | O=C(NCc1ccccc1)[C@@H]1C[C@H]1[C@@H](NP(=O)(c1ccccc1)c1ccccc1)c1ccccc1 | inactive | 
2 | CCC1=C(OC(=O)N(CC)CC)N2C(=O)OC(=NCCc3c[nH]c4ccccc34)[C@]2(Cc2ccccc2)[C@H]2C1=CC[C@H]1C(=O)N(CC)C(=O)[C@H]12 |  | inactive: -0.742%
3 | S=C(Nc1ccc2cn[nH]c2c1)Nc1ccccc1Cl | active: 14.1 µM | 
4 | COc1ccc(/C=C/C2=C[C@]3(C)C[C@]2(C)[C@H](c2ccc(OC)cc2)CC3=O)cc1 |  | inactive: 5.08%
5 | CCOC(=O)c1cc(OC(=O)c2ccccc2OC)n(-c2ccccc2)n1 |  | inactive: -13.1%
6 | NC1=NC[C@@H](Cc2ccc(O)cc2)N1CCc1cccc(F)c1 |  | inactive: -6.21%
7 | COc1ccccc1/C=C/C=N/n1c(C2CCCCC2)n[nH]c1=S |  | inactive: -12.4%
8 | Cc1ccc(OCCNc2cc(N3CCN(CCO)CC3)ccc2[N+](=O)[O-])cc1C | active: 15.8 µM | 
9 | Cc1ccsc1/C=C1\SC(N2CC(C)OC(C)C2)=NC1=O (stereo not drawn) |  | inactive: -6.21%
10 | CN(C)c1ccc(N=Cc2nc(-c3ccccc3)oc2OC(=O)c2cccc(Br)c2)cc1 | active: 10 µM | 
11 | Cc1cccc(COC[C@H](Cc2ccccc2)N2CCN(C(=O)c3cccc(C)c3)CCC2=O)c1 |  | inactive: -10.1%
12 | COCCN1C=C2C(=O)C(C)(OC(=O)c3cccs3)C(=O)C=C2C=C1CCCC(=O)OC (stereo not drawn) |  | inactive: 8.54% [at 11.5 µM]
13 | CC1(C)OCC([C@H](O)C2=CCCCC2=O)CO1 |  | inactive: -8.38% [at 11.5 µM]
14 | CC(C)(Oc1ccc(Cl)cc1)C(=O)O | inactive | 
15 | COc1ccc(O[C@H]2C=C[C@@H](c3ccccc3)O[C@H]2CO/N=C\C[C@@H]2C=C[C@H](OC(C)=O)[C@H](COC(C)=O)O2)cc1 |  | inactive: -9.66% [at 11.5 µM]
16 | COC(=O)C1(C(=O)OC)CC(CO)C(=O)[C@H]1c1ccccc1 (stereo partly drawn) |  | inactive: -10.3%
17 | C=CCN1CCN(c2nc3ccccc3nc2C#N)CC1 |  | inactive: -3.38%
18 | CCc1ccc(NC(=O)c2cc(-c3cccs3)on2)cc1 |  | inactive: -17.5%
19 | C/C(CCN1CCc2nc(-c3ccccc3)c(-c3ccccc3)cc2C1)=N\O[C@@H](C)c1cc(-c2c(C)cc(C)cc2C)no1 |  | inactive: -11.1% [at 11.5 µM]
20 | Cc1ccc(-c2cc(C(=O)NCc3cnn(C)c3)c3cc(Br)ccc3n2)cc1 |  | inactive: -3.94%

Row | Compound | Potency | activity, negative = inhibition
21 | COc1ccc(C2C(=O)c3ccccc3C2=O)cc1 |  | inactive: -2.7%
22 | Cc1nn(-c2ccccc2)c(N2CCCC2)c1/C=C1\N=C(c2ccc(OC(C)C)cc2)OC1=O | active: 10 µM | 
23 | N#Cc1ccc(N=c2ssnc2Cl)cc1 | active: 20 µM | 
24 | Cc1oc(-c2ccccc2)cc1C(=O)Nc1ccc(N(C)C)cc1 | active: 12.6 µM | 
25 | CO[C@H]1COC(=O)[C@@H](C)NC(=O)C/C=C\[C@@H](C)[C@H](OC)COC(=O)C/C=C\[C@@H]1C |  | inactive: -12.3% [at 11.5 µM]
26 | COc1ccc(-c2nc(CCNC(=O)c3cccs3)cs2)cc1 |  | inactive: -11.6%
27 | Cc1ccc2c(c1)c(CC(=O)Nc1ccc(C)c(F)c1)c(C(=O)O)n2C |  | inactive: 4.23%
28 | C[C@@]12C(=O)OC(=O)[C@@]1(C)C1CCC2O1 |  | inactive: -4.12%
29 | COc1cc(/C=N/Nc2ccc(S(N)(=O)=O)cc2[N+](=O)[O-])cc(OC)c1O | active: 1.78 µM | 
30 | COc1ccc(COc2cc(-c3cccc(OC)c3)nc3ccc(NC(=O)c4ccccc4)cc23)cc1 |  | inactive: -9.46%
31 | O=C(C1=C[C@@H](c2ccc3c(c2)OCO3)C[C@@H](OCCCCO)O1)N1CCOCC1 |  | inactive: -11.4%
32 | O=[N+]([O-])c1cccc2c(Br)[nH]nc12 | inactive | 
33 | O=C(/C=C/c1cccnc1)/C=C/c1cccnc1 | active: 4.47 µM | 
34 | NC(C(=O)O)c1ccc(P(=O)(O)O)cc1 (stereo not drawn) |  | inactive: 3.34%
35 | CCOCCCNC(=O)C(Cc1ccccc1)NS(=O)(=O)c1ccc2c(c1)c(=O)n(C)c(=O)n2C (stereo not drawn) |  | inactive: -3.8%
36 | O=C(O)/C=C/c1cn(-c2ccccc2)nc1-c1cc2ccccc2o1 |  | inactive: -5.19%
37 | CCCCC/C=C\CC(O)/C=C/c1cccc(CC(O)CCCCO)n1 (stereo not drawn) | inactive | 
38 | CCCCCCCCCCCCC/C=C/[C@@H](O)[C@H](CO)NC(C)=O |  | inactive: 3.32%
39 | Cc1nc2c(-c3ccc(F)cc3)c(C)nn2c(C)c1CCC(=O)N1CCN(c2ccccc2)CC1 |  | inactive: -3.92%
40 | COn1c2c(c3c4nonc4ccc31)CCCC2 | active: 14.1 µM | 

Row | Compound | Potency | activity, negative = inhibition
41 | O=C1CCCCC/C1=N/Nc1ccc(OCc2ccccc2)cc1 | active: 11.2 µM | 
42 | CC1CCC(C(C)C)C(OC(=O)Cn2c(-c3ccc(Br)cc3)[n+](C)c3ccccc32)C1 (stereo not drawn) |  | inactive: -9.93%
43 | CCOC(=O)c1cnc2ccccc2c1NCCc1ccc(OC)c(OC)c1 |  | inactive: -14.3%
44 | Cn1cc(/C=C2\SC(=O)NC2=S)c2ccccc21 | active: 2 µM | 
45 | Nc1c2ccccc2nc2ccccc12 (tested in a mixture with another compound) |  | inactive: -12.2%
46 | O=C(c1ccccc1)c1sc(N2CCCCCC2)nc1-c1ccccc1 |  | inactive: -21.8%
47 | COc1ccc(COc2cc(-c3cccc(OC)c3)nc3ccc(NC(=O)c4ccc(N(C)C)cc4)cc23)cc1 |  | inactive: -18%
48 | CCOC(=O)/C=C/C(=O)Nc1ccccc1-c1ccccc1NC(=O)/C=C/C(=O)OCC | active: 20 µM | 
49 | O=C(N/N=C\c1cccc([N+](=O)[O-])c1O)C1COc2ccccc2O1 (stereo not drawn) | active: 7.94 µM | 
50 | C[n+]1ccc(/C=N/Nc2nc(Cl)c(C#N)c(Cl)c2Cl)cc1 | active: 12.6 µM | 
51 | C[C@]12CC[C@@H]3c4ccc(O)cc4CC[C@H]3[C@@H]1CCC2=O | inactive | 
52 | O=C(c1ccc(F)cc1)C1CCN(CCn2c(=O)[nH]c3ccccc3c2=O)CC1 |  | inactive: -10.1%
53 | CCOC(=O)C1=C[C@]2(CC)CCCN3CCc4c(n1c1ccccc41)[C@@H]32 |  | inactive: -4.25%
54 | c1ccc(-c2csc(Nc3ccc4c(c3)OCCO4)n2)cc1 | active: 12.6 µM | 
55 | COC(=O)CCC(=O)OC1(C)C(=O)C=C2C=C(C3CC3)N(Cc3ccccc3)C=C2C1=O (stereo not drawn) |  | inactive: -1.24% [at 11.5 µM]
56 | CN(C)c1ccc(/C=C/C=C2/SC(=S)N(c3ccccc3)C2=O)cc1 | active: 2.51 µM | 
57 | O=C(NCCc1c[nH]c2ccccc12)[C@@H]1C[C@H]1[C@@H](NP(=O)(c1ccccc1)c1ccccc1)c1ccccc1 |  | inactive: 5.09%
58 | CC(C)Cn1c(N)c(C(=O)COC(=O)c2cc(C(F)(F)F)nc3c(C(F)(F)F)cccc23)c(=O)n(C)c1=O |  | inactive: -12.6%
